The record followed here is the supplement of paper PMC10338343.

± gives the standard deviation. The list shows a part of the results, in another mix than the full data.
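Further: 1 nM active piRISC with 0.1 nM target library at 33 °C single turnover.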

The test system of this experiment is MIWI (PIWIL1) piRISC loaded with piRNA #1 (30 nt). The experiment in a line: pre-steady-state target cleavage rate (min^-1); MIWI and MILI are mouse PIWI proteins and EfPiwi is from a freshwater sponge; tags in brackets are library labels; higher = faster piRNA-guided slicing of the target. The settings on record: guide: piRNA #1 5'p-UGAGGUAGUAGGUUGUAUAGUAUCCAGAGG; auxiliary factor: 500 nM mouse GTSF1. The method, boiled down: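 Three pooled Cleave-'n-Seq trials supplied the data, with k3 capped at 0.0001 min^-1. In each, […] transcribed, DNA-blocked target RNA library and 1 nM active affinity-purified piRISC with one synthetic guide reacted in HEPES–potassium acetate buffer at 33 °C for 0–8 or 0–960 min, with or without 500 nM GTSF1 partner protein. Uncleaved targets were sequenced and normalised to depth and to weakly complementary targets. A burst-and-steady-state fit provided the pre-steady-state cleavage rate.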
For the sequence GGUGUGGAUACUAUUCAACCUACUACCUCA, the “pre-steady-state target cleavage rate” value is 1.78 ± 0.12.
The result for CCUCUGGAUCACUAUACAACCUACUACCUCA reads 1.1 ± 0.093; that for GGUCUGGAUACAUAACAACCUACUACCUCA, 0.696 ± 0.1.
Consider GGAGACCAUACUUAACAACCUACUACCUCA, for which the “pre-steady-state target cleavage rate” value is 0.218 ± 0.031.
The same measure for GGAGUGGAAACUAUACAACCAACUACCUCA: 0.104 ± 0.011.
On to GGAGAGGAUAGUAUACAUCCUACUACCUCA, for which the “pre-steady-state target cleavage rate” value amounted to 0.182 ± 0.027.
The result for CCUCUGGAUACUAUAGAACCUUCUACCUCA reads 0.195 ± 0.026; that for GGACUCCAUACUAUACAACCUACUACCUCA, 1.67 ± 0.11; that for GGAGUGGAUUCUAUACAACCUUCUACCUCA, 0.697 ± 0.037.
The same measure for GGAGACCUUACUAUACAACCUACUACCUGA: 0.777 ± 0.077.
The same measure for GGUCUGGAUACUAUACAACCUACUCCCUCA: 0.341 ± 0.043; for GCUCUGGAUACUAUACAUCCUUCUACCUCA: 0.322 ± 0.026; for GGUCUGGAUACUAUACAACCAUGUACCUCA: 0.00331 ± 0.0027.
Regarding GGAGUGGAUUCUAUAGAACCUACUACCUCA, the “pre-steady-state target cleavage rate” value was found to be 1.28 ± 0.078.
The same measure for GGUCAGGAUACUAUACAAGCUACUACCUCA: 0.728 ± 0.035.
For the sequence GGUCUGGAUACUAUACUACCAACUACCUCA, the “pre-steady-state target cleavage rate” value was found to be 0.0238 ± 0.0053.
The result for GGAGACCUUACUAUAGAACCUACUACGUCA reads 0.327 ± 0.046.
The same measure for GGUCUGCAUACUAUACAACCUACUUCCUCA: 0.0157 ± 0.0051; for GGACUGCAUACUAUACUACCUACUACCUCA: 1.05 ± 0.12; for GGUCUGGAUACUAGUACAACCUACUACCUCA: 1.61 ± 0.12.
The result for GGAGACGAUACUAUACAACCUACUACCUAA reads 1.14 ± 0.074.
For the sequence GGAGACCUAUCUAAACAUCCUACUACCUCA, the “pre-steady-state target cleavage rate” value was determined as 0.0166 ± 0.0047.
The result for GGUGUCGAUACUAUACAACCUACUACCUCA reads 1.64 ± 0.1; that for GGAGACCUAUGAUAUCAACCUACUAUCUCA, below 0.0001.
Take CCUCUGGAUACUAUACAACCAAGUACCUCA: the “pre-steady-state target cleavage rate” value was 0.0422 ± 0.01.
The result for GGAGAGGAUACUACACAACCUACUACCUCA reads 1.41 ± 0.069; that for CCUCUGGAUACUAUACAACCUUGAACCUCA, 0.00821 ± 0.0023.
The result for GGAGACGAUACUAUACAACCUACAACGUCA reads 0.322 ± 0.11; that for GGAGACCUAUGAAUACAACUCUACUACCUCA, below 0.0001; that for GGAGAGGAUUCUAUACAACCUACUUCCUCA, 0.0434 ± 0.0092.
For GGACUGGAUACUUACAACCUACUACCUCA, the “pre-steady-state target cleavage rate” value is 0.994 ± 0.14.
The result for GGACUGGACUACUAUACAACCUACUACCUCA reads 1.32 ± 0.1.
The result for GGUCUGGAUUCUAUACAACCUACUACCUCA reads 1.77 ± 0.098; that for GCUCUGGAUACUAUAUCAACCUACUACCUCA, 0.868 ± 0.1.
The same measure for GGAGACCUAACUAUUACAACCUACUACCUCA: 0.319 ± 0.039; for GCUCUGGAAACUAUACAACCUUCUACCUCA: 0.738 ± 0.047.
On to GGAGACCUAUGUAGACAACCUACUACCUCA, for which the “pre-steady-state target cleavage rate” value is 0.00428 ± 0.0025.
For the sequence “GGAGACCUAACUAUACAACCUACUUGGAGA [g7:g21:cont:t1A]”, the “pre-steady-state target cleavage rate” value was determined as 0.0494 ± 0.021.
The same measure for GGUCUGGAUACUAUACAACCUUCUACCUGA: 0.169 ± 0.036.
The same measure for GGUCGGGAUACUAUACAACCUACUACCUCA: 1.66 ± 0.11.
